In PubChem BioAssay AID1508624 (National Center for Advancing Translational Sciences (NCATS), 2021):
The campaign covered roughly 48,000 compounds. About 120 (0.25%) were called active. Inconclusive results (about 4%) are left out. Calls follow the shape of the dose curve; as a rule, active = well fitted activation curve with a large enough effect; inconclusive = small, poorly fitted or top-dose-only effect, or another doubt; inactive = no such curve, though single readings can be large or run the other way. This is one part of the list.

Test: Primary qHTS for Identification of Small Molecule Activators of Huntingtin-Antisense Promoter Activity; also: nearly all actives have a fitted effect of over 55% in size
Details: HEK293 HTT-AS promoter firefly luciferase reporter (activity 0% = vehicle and -100% = no light), 24 h; series mostly up to 57.5 µM; activity change, positive = activation: at the top concentration
Procedure, shortened: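 HEK293 Fluc reporter, 2,500 cells/well, 24 h pre-culture; cpds up to 57.5 uM final, 24 h 37 degrees C; Dual-Glo, 10 min RT; normalized vehicle = 0%, zero RLU = -100%.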

Activity change, positive = activation, inactive:
Cc1cccc2nc(-c3ccccn3)c(Nc3ccc(F)cc3)n12 -44.6%, COc1ccc(C2CC(=O)N(Cc3ccc(C)cc3)c3c2c(C)nn3-c2nc(C)cc(C)n2)c(OC)c1 (stereo not given) -2.79%, CCC(=O)N1c2ccccc2CC1C(=O)NCc1ccc(CC)cc1 (stereo not given) -8.36%, Cc1cc(C)cc(N(CC(=O)NCCc2ccc(Cl)cc2)S(=O)(=O)c2c(C)noc2C)c1 -5.35%, Cc1ccc2c(c1)c1c(c(=O)n(-c3ccccc3)c(=O)n1Cc1ccccc1C)n2C -14.2%, CN1CCN(C(=O)c2cnn(-c3ccc(F)cc3F)c2C2CCN(C(=O)OC(C)(C)C)CC2)CC1 -13%, COc1ccc(NC(=O)Nc2nnc(N3CCCC3)s2)cc1 46%, CC(=O)c1ccc(S(=O)(=O)NC(=O)NC2CCCCC2)cc1 -1.13%, Cc1ccc2c(=O)cc(C(=O)N(Cc3ccc(C(C)(C)C)cc3)C3CCS(=O)(=O)C3)oc2c1 (stereo not given) -13.8%, Cc1ccc(-n2ncc(C(=O)NCc3ccc4c(c3)OCO4)c2C2CCN(C(=O)OC(C)(C)C)CC2)c(C)c1 -2.03%, COC(=O)c1ccc(NC(=O)c2cc(S(=O)(=O)N3CCOCC3)cn2C)cc1 -8.38%, Cc1ccccc1OCC(=O)Nc1ccc(S(=O)(=O)N(Cc2ccccc2)c2ccccc2)cc1 -3.03%, CC(=O)Nc1ccc(NS(=O)(=O)c2c(C(=O)N3CCCCCC3)c(C)n(C)c2C)cc1 -8.84%, CN(C)c1ccc(NC(=O)Cn2c(SCc3ccc(F)cc3)nc3ccncc32)cc1 -7.66%, COc1ccc(CCNC(=O)CSc2cn(CCNC(=O)c3c(F)cccc3F)c3ccccc23)cc1OC -28.6%, COc1ccc(Cn2c(=O)c3oc4ccccc4c3n(CC(=O)Nc3c(C)cccc3C)c2=O)cc1 -4.29%, Cc1oc2cc3oc(=O)c(CCC(=O)NCCc4ccccc4F)c(C)c3cc2c1C 15.7%, COc1ccc(-c2nc3c(c(SCc4ccc(Br)cc4)n2)Cc2c(CO)cnc(C)c2O3)cc1 -13.9%, Cc1ccc(OCCSc2nnc(-c3cccs3)o2)cc1 6.02%, O=C(CSc1nc2ccccc2n1Cc1cccc(F)c1)NCc1ccccc1 -30.3%, CCOC(=O)c1sc2ncn(CC(=O)Nc3ccc(OC)c(Cl)c3)c(=O)c2c1C 0.282%, COc1ccc(-c2nc3sc(CCNC(=O)C(=O)Nc4ccc(OC)c(OC)c4)c(C)n3n2)cc1 9.95%, CC(C)CCNC(=O)Cn1nc(N2CCN(c3ccccc3)CC2)ccc1=O -10.9%, Cc1ccccc1Cn1c2ccccc2c2cnn(CC(=O)NC3CCCCCC3)c(=O)c21 -5.88%, COc1ccc(Br)cc1Cn1nnc(C(=O)Nc2cccc(SC)c2)c1N -30.4%, CC[C@@H](C)[C@H](NC(=O)[C@H](CC1CCCCC1)NC(=O)c1ccno1)C(=O)N1CCC2(CCc3ccccc32)CC1 -20.7%, COc1ccc(OC)c(C2C(C(=O)Nc3ccc(C)cc3)=C(C)Nc3nnnn32)c1 (stereo not given) -17.4%, Cc1ccc(NC(=O)c2ccc(CN3CC(=O)N4CCCCC4C3=O)cc2)c(Cl)c1 (stereo not given) -12.3%, CN(CC(=O)Nc1cccc(F)c1)S(=O)(=O)c1ccc2c(c1)n(C)c(=O)c(=O)n2C 17.8%, CSc1cccc(NC(=O)c2cc3c(COC(C)=O)cnc(C)c3oc2=O)c1 -12.7%, COc1cc(CNC(=O)c2cc3n(n2)CCCN(Cc2cccc(F)c2)C3=O)cc(OC)c1OC -11.5%, CC(=O)c1cccc(NC(=O)CSc2ncc3c(n2)-c2cc(Cl)ccc2N(Cc2ccccc2)S3(=O)=O)c1 -12.2%, O=C(CC(c1cccs1)N1Cc2ccccc2C1=O)Nc1ccc(F)cc1 (stereo not given) -17.2%, COc1ccc(S(=O)(=O)NCc2nc(-c3ccccc3)no2)cc1 -23.2%, O=C(c1cc2c(Cl)nc3ccccc3c2s1)N1CCCCC1 21.3%, Oc1ccc(-c2nc3ccc(Cl)cn3c2Nc2ccc(Cl)cc2)cc1 -39.2%, COc1ccc(Cn2ccc3nc(C)c(C(=O)NCc4ccc(SC)cc4)cc3c2=O)cc1 -24.6%, Cc1ccccc1NC(=O)Cn1nc(-c2ccccc2)nc(Cc2ccccc2)c1=O -4.84%, Cc1ccc(CNS(=O)(=O)c2cnc(N)nc2)cc1 -10.1%, COc1ccc(CNC(=O)CSc2nnc(C)c3c(C)n(-c4ccccc4)nc23)c(OC)c1 -35.8%, CCc1ccc2ncc3c(-c4ccc(C)cc4)nn(CC(=O)NCc4ccccc4)c3c2c1 -5.32%, CSc1ncc(C(=O)NCc2cccc(C)c2)c(-c2ccccc2)n1 -20.3%, COc1ccccc1/C=C/C(=O)Nc1nc2n(n1)C(c1ccc(F)cc1)C=C(c1ccccc1)N2 (stereo not given) -20.7%, Cc1ccc(OCCn2c(C3CC(=O)N(Cc4ccc(F)cc4)C3)nc3ccccc32)c(C)c1 (stereo not given) -46.6%, C=CCc1ccccc1OCCSc1nc(-c2ccccc2F)nc2cc(=O)[nH]n12 7.86%, O=S(=O)(NCC(c1ccccc1)N1CCc2ccccc21)c1ccc(Cl)cc1 (stereo not given) -39.6%, COc1ccc(C(=O)c2cn(Cc3ccccc3OC)c3cc4c(cc3c2=O)OCO4)cc1 -3.6%, Cc1cccc(N2CCN(c3nc4ccccc4c4nnc(C)n34)CC2)c1C -12.8%, CCN(CC)C(=O)c1sc2c(c1C)c(=O)n(-c1ccc(OC)cc1OC)c(=O)n2CC(=O)Nc1ccccc1 -11.3%, COC(=O)c1ccc(NC(=O)CC2C(=O)N(c3ccccc3)C(=O)N2Cc2cccs2)cc1 (stereo not given) -5.34%, Cc1cc(C)cc(-n2ccnc2SCC(=O)Nc2ccccc2F)c1 -23.7%, O=C(CN1C(=O)COc2ccc(S(=O)(=O)N3CCCCCC3)cc21)N1CCN(c2ccc(Cl)cc2)CC1 -23.9%, CCOC(=O)c1ccc(NC(=O)CC(C)n2nc(C)cc2C)cc1 (stereo not given) 0.0719%, COc1cc(NC(=O)Cc2noc3ccccc23)cc(OC)c1OC -11.9%, Cc1cccc(-n2ncc3c(NNC(=O)c4ccccc4Cl)ncnc32)c1 -23.2%, COc1ccc(-c2ccc(=O)n(CC(=O)Nc3cc(OC)ccc3OC)n2)cc1 -15%, O=c1[nH]c(C2CCCN(S(=O)(=O)c3ccccc3)C2)nc2c1nnn2Cc1ccccc1Br (stereo not given) -30.3%, CCOC(=O)c1cccc(NC(=O)Nc2c(C)n(C)n(-c3ccccc3)c2=O)c1 -3.39%, COc1ccc(CNC(=O)c2cc(-c3ccc(Br)s3)nc3ccccc23)cc1 -9.73%, Cc1ccc(C)c(Nc2nn3c(=O)c4ccc(C(=O)NCc5ccccc5)cc4nc3s2)c1 -23.4%, Cc1cccc(C)c1NC(=O)Cn1cc(C(=O)C2CC2)c2ccccc21 -17.4%, Cc1nn(CCC(=O)Nc2cccc(C#N)c2)c(C)c1S(=O)(=O)N1CCCCC1 -35.8%, COc1cccc(C(=O)Nc2nnc(S(=O)(=O)N3CCCc4ccccc43)s2)c1 -28.8%, CCCCN(CC)CCCNC(=O)c1cn(C)c(=O)c2c1c1ccccc1n2C -11.6%, CCS(=O)(=O)NCCc1csc2nc(-c3ccc(OC)cc3)nn12 -5.17%, COc1ccc(OC)c(S(=O)(=O)NCCS(=O)(=O)N2CCN(c3ccccc3F)CC2)c1 -18.3%, CCc1cnc2c(c1SCc1cc(OC)cc(OC)c1)c(=O)n(C)c(=O)n2C -6.38%, Cc1ccc(C)c(CN2C(=O)c3ccccc3S(=O)c3ccc(C(=O)N4CCCCC4)cc32)c1 (stereo not given) -6.76%, CCCc1nnc(SCc2cc(=O)c3c(C)cc(C)cc3[nH]2)n1C -9.33%, CCc1nnc(NC(=O)CSc2nccn2Cc2ccc(Cl)cc2)s1 -12.3%, O=C(Nc1ccc(F)cc1F)C1CCN(C(=O)c2cnn(-c3ccccc3)c2-n2cccc2)CC1 -31.7%, O=C(NCC(c1ccc2c(c1)OCO2)N1CCN(c2ccccc2)CC1)c1ccc(F)c(F)c1 (stereo not given) -32.9%, CCCN[C@H]1CCc2nc(N)sc2C1, C=CCC(CC=C)(CNC(=O)C(=O)Nc1ccc(Br)cc1)c1ccc(OC)c(OC)c1 -15%, CC(C)(C)Cn1c(N)nc2ccc(-c3[nH]c(C(C)(C)C)nc3-c3ccc(F)cc3)nc21 -31.3%, O=C(NCc1cccc(Cl)c1)c1cnc(N2CCOCC2)c2ccccc12 -16.1%, CCc1ccc(CNC(=O)Cn2nc(C)c3nn(-c4ccc(Cl)cc4)c(C)c3c2=O)cc1 -48%, CCOc1ccc(NS(=O)(=O)c2c(C)nc3sc(CC)nn3c2=O)cc1 -28.6%, COCCNC(=O)c1ccc2c(c1)ncn2-c1cc(C)ccc1OC -8.56%, Cn1cccc1-c1cc2n(n1)CCC(=O)N2CCCC(=O)NCc1cccc(Cl)c1 4.5%, CSc1ccc(CCNC(=O)c2ccc(-n3c(C)cc4c3CCC(C)C4)cc2)cc1 (stereo not given) 0.603%, COc1ccc2c(c1)c(CC(=O)Nc1c(C)cccc1C)c(C)n2C(=O)c1ccc(Cl)cc1 -37.9%, COc1ccc(C(=O)CC2(O)C(=O)Nc3c(Cl)ccc(Cl)c32)cc1 (stereo not given) -40.5%, COc1ccc(OCC(=O)NCc2ccc3c(c2)CCN3C(=O)c2cccc(C)c2)cc1 -29.6%, CC(=O)N1CCCC1c1nc2ccccc2n1Cc1cccc(C)c1 (stereo not given) -8.83%, CCOc1ccccc1NC(=O)Cn1c(=O)n(-c2ccc(C)cc2)c(=O)c2c1cnn2C -14.3%, Cc1cc(C)cc(NC(=O)CCn2cnc3ccccc3c2=O)c1 5.15%, CC(C)c1ccc(C2NC(=O)c3c(sc4c3CCN(C)C4)N2)cc1 (stereo not given) 5.5%, COc1ccc(NC(=O)c2ccc(NC(=O)CCS(=O)(=O)c3cccs3)cc2)cc1Cl -6.1%, Cc1ccc(-n2nnnc2SCC(=O)NCCc2ccccc2)cc1C -7.32%, CCOc1ccc(N(CC(=O)OC)S(=O)(=O)c2ccc3c(c2)n(C)c(=O)c(=O)n3C)cc1 -7.38%, CCC(C)NC(=O)Cn1c(=O)n(-c2ccc(Cl)cc2)c(=O)c2c3c(sc21)CCCC3 (stereo not given) -4.61%, Cc1ccc(C)c(N2CCN(C(=O)c3c(C)oc4nc(C)nc(N5CCOCC5)c34)CC2)c1 -20.7%, CCCCC(=O)OC1=CN(Cc2ccccc2)S(=O)(=O)c2ccccc21 -3.37%, CC(CC(=O)Nc1ccc(F)cc1)S(=O)(=O)c1cc2c3c(c1)CCN3C(=O)CC2 (stereo not given) 6.12%
